# Laboratory results reported in PubChem BioAssay AID1345082 (National Center for Advancing Translational Sciences (NCATS), 2018).
# In all, about 94,000 compounds went through this assay and about 4,000 (4.3%) were called active. Inconclusive means that the source gave no clear call. Such entries were picked first, then a sample of the others. The call rests on the fitted dose curve; in most records, active means well fitted inhibition curve with a large enough effect; inconclusive means small, poorly fitted or top-dose-only effect; inactive means no such curve, though single readings can be large or run the other way. Potencies beside an inconclusive call are fits to weak or partial responses and may not hold up.
# Assay: Cytotoxic Profiling in NIH 3T3 Cell Line of Diverse Libraries Using Quantitative High-Throughput Screening; further: nearly all actives have a fitted effect of over 55% in size
# Details: NIH 3T3 viability, CellTiter-Glo ATP luminescence, 48-72 h; series mostly up to 96.7 µM
# Summary of the method: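 ATP-dependent luminescence (CellTiter-Glo) served as the viability signal for NIH 3T3 cells treated with compound for 48 or 72 hr at 37 °C.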
# Potency means the concentration at half of the fitted maximal effect; tags describe the fitted curve by direction and shape.
row,Compound,Potency
1,O=C1Nc2ccc(-c3ccccc3F)cc2C(=O)N2CCN(C(=O)c3ccco3)C[C@@H]12,"inconclusive: 79.4 µM [inhibitor, partial curve]"
2,CCN(CC)C(=O)c1csc(N2CCN(c3cccc(Cl)c3)CC2)n1,"inconclusive: 39.8 µM [inhibitor, partial curve, poor fit]"
3,O=C(c1ccc(OC(F)(F)F)cc1)N1CCC([C@@H]2CNC[C@H]2CO)CC1,inactive
4,COc1cccc(CN2C(=O)OC3(CCN(C(=O)C(C)C)CC3)C2(C)c2cccnc2)c1 (configuration not stated),"inconclusive: 8.91 µM [inhibitor, full curve, poor fit]"
5,COc1ccccc1CCC(=O)N(C)C1CCc2nn(C)c(=O)n2CC1 (configuration not stated),inactive
6,O=C(NCCc1ccc(F)cc1)C1CN(C2CCCC2)C(=O)N1 (configuration not stated),inactive
7,COc1cc(OC)cc(C(=O)N2CCC3(CC2)NC(=O)N(Cc2ccc(F)cc2)C3=O)c1,"inconclusive: 50.1 µM [inhibitor, partial curve, poor fit]"
8,CCCn1nc(C)c(-c2cc(C(=O)N3CCCCC3c3noc(COCC4CC4)n3)[nH]n2)c1C (configuration not stated),"inconclusive: 50.1 µM [inhibitor, partial curve, poor fit]"
9,Cc1ccccc1C(=O)N1CCCC(C(=O)N2CCC(c3nc4ncccc4[nH]3)C2)C1 (configuration not stated),inactive
10,Cc1ccc(CNC(=O)c2ccc3c(c2)CN(Cc2ccc(N(C)C)cc2)CCO3)cc1,"inconclusive: 44.7 µM [inhibitor, partial curve, poor fit]"
11,CC(C)CCN1CCC2(Cc3ccccc3NC2=O)C1 (configuration not stated),"inconclusive: 112 µM [inhibitor, partial curve, poor fit]"
12,COc1cc(-c2cc(C)c3c(OC)ccc(OC)c3n2)cc2c1OCCNC2,active: 20 µM
13,COc1ccccc1CN1CCc2ncc(C(=O)Nc3ccccc3)n2CC1,"inconclusive: 100 µM [inhibitor, single point]"
14,O=C1NC(=NC2CCCCC2)C2(CCN(Cc3cccnc3)C2)N1c1cc(F)cc(F)c1 (configuration not stated),active: 35.5 µM
15,CN(Cc1ccccc1C(F)(F)F)S(C)(=O)=O,"inconclusive: 100 µM [inhibitor, single point]"
16,O=C1[C@@H]2C[C@@H](O)CN2C2(CN(Cc3cccs3)C2)C(=O)N1Cc1ccccc1F,inactive
17,COc1ccc(C)cc1C(=O)N1CCc2onc(-c3ccccc3F)c2C1,inactive
18,Cc1cc(-c2cc3c(cn2)CN(Cc2ccc4[nH]ccc4c2)CCN3)ccn1,"inconclusive: 56.2 µM [inhibitor, partial curve, poor fit]"
19,CN(C(=O)c1cc2ccccc2n1C)C1CCCN(C2Cc3ccccc3C2)C1 (configuration not stated),"inconclusive: 39.8 µM [inhibitor, full curve]"
20,CCn1nccc1C(=O)N1CCCC(n2c(C)cnc2COC)C1 (configuration not stated),"inconclusive: 50.1 µM [inhibitor, partial curve, poor fit]"
21,COc1cc(O)ccc1CN1CCCC(COc2ccccc2C(=O)N2CCOCC2)C1 (configuration not stated),inactive

row,Compound,Potency
1,COc1ccc(C(=O)N2CCCN(c3cc(-c4ccc(Cl)cc4)[nH]n3)CC2)c(C)c1,"inconclusive: 31.6 µM [inhibitor, partial curve, poor fit]"
2,COCCn1ccc2c(C(=O)Nc3ccc4c(c3)C(=O)N3CCC[C@H]3C(=O)N4)cccc21,"inconclusive: 31.6 µM [inhibitor, partial curve, poor fit]"
3,Cc1noc2c(NCc3ccncc3)cc(-c3cccc(C(F)(F)F)c3)nc12,active: 50.1 µM
4,O=C(Cn1cccc1-c1nc(-c2ccccc2)no1)Nc1ccc(F)cc1,inactive
5,COc1ccc(S(=O)(=O)N2CCCC(Cc3noc(-c4ccccc4)n3)C2)cc1 (configuration not stated),"inconclusive: 15.8 µM [inhibitor, full curve]"
6,O=C(Nc1cccc(Cl)c1)C1=NO[C@@H]2CN(c3cccnc3)C[C@H]12,"inconclusive: 35.5 µM [inhibitor, partial curve, poor fit]"
7,CN1C[C@@H]2CCCN3CCC[C@@H]([C@H]23)[C@H]1CCCC(=O)NCCCN1CCc2ccccc2C1,"inconclusive: 56.2 µM [inhibitor, partial curve, poor fit]"
8,COCCN1CCCC2(CCN(C(=O)c3oc4cc(C)ccc4c3C)C2)C1=O (configuration not stated),inactive
9,COc1ccc(Nc2cc3c(cn2)CN(C)CCN3C)cc1OC,"inconclusive: 56.2 µM [inhibitor, partial curve, poor fit]"
10,CC(=O)NC1(C)CN(Cc2ccc(-c3cccc(F)c3)s2)C1,"inconclusive: 89.1 µM [inhibitor, partial curve, poor fit]"
11,Cc1cnc(C(=O)NC2C[C@H]3CC[C@@H](C2)N3C(=O)C2CCCCCC2)cn1 (some centres not stated),inactive
12,CN(CCc1noc(C2CN(C(=O)c3ccncn3)C2)n1)C(=O)C1CC1,inactive
13,O=C(c1cccc(Cl)c1)N1CCC2(CC1)OCC(C(=O)N1CCCC1)N2C(=O)c1cccc(F)c1 (configuration not stated),"inconclusive: 35.5 µM [inhibitor, partial curve, poor fit]"
14,COC[C@@H]1CN(c2cnccn2)C[C@H]1C(=O)NCCc1cccnc1,inactive
15,O=C(c1ccnc(-c2ccccc2-c2ccccc2)c1)N1CCCC1,active: 35.5 µM
16,O=C1CC2(CCN(Cc3ccc(F)cc3)CC2)Oc2ccccc21,"inconclusive: 44.7 µM [inhibitor, partial curve, poor fit]"
17,CSc1ccc(-c2cccc(CN3CCC(NC(C)=O)CC3)c2)cc1,"inconclusive: 50.1 µM [inhibitor, partial curve, poor fit]"
18,CCn1ccc(C(=O)N2C[C@@H](COc3ccccc3)[C@H](C(N)=O)C2)n1,inactive
19,COc1ccccc1CC(=O)N1CCCN(c2cc(-c3ccccc3)[nH]n2)CC1,"inconclusive: 35.5 µM [inhibitor, partial curve]"
20,Cn1cnc2cc(-c3ccc(F)cc3)cc(C(=O)NCCCn3ccnc3)c21,"inconclusive: 100 µM [inhibitor, partial curve, poor fit]"
21,O=C(c1nnc(CN2CCC(F)(F)CC2)n1-c1cccnc1)N1CCC[C@@H]1C(c1ccccc1)c1ccccc1,active: 25.1 µM
